The record followed here is article PMC4336329 (PLoS ONE, 2015).

Molecules are shown by their SMILES. The campaign covered roughly 310,000 compounds. About 14,000 (4.5%) showed an effect of 50% or more. The effect is printed as a negative number. The list shows a part of the results.
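Also: peak tail current of the secondary pulse compared with the same well before compound.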

In this experiment the target is human ether-à-go-go-related gene (hERG) potassium channel (human, UniProt Q12809). In words: primary screen, population patch clamp on CHO cells stably expressing hERG.
Sequence of human ether-à-go-go-related gene (hERG) potassium channel (Q12809 whole entry, looked up): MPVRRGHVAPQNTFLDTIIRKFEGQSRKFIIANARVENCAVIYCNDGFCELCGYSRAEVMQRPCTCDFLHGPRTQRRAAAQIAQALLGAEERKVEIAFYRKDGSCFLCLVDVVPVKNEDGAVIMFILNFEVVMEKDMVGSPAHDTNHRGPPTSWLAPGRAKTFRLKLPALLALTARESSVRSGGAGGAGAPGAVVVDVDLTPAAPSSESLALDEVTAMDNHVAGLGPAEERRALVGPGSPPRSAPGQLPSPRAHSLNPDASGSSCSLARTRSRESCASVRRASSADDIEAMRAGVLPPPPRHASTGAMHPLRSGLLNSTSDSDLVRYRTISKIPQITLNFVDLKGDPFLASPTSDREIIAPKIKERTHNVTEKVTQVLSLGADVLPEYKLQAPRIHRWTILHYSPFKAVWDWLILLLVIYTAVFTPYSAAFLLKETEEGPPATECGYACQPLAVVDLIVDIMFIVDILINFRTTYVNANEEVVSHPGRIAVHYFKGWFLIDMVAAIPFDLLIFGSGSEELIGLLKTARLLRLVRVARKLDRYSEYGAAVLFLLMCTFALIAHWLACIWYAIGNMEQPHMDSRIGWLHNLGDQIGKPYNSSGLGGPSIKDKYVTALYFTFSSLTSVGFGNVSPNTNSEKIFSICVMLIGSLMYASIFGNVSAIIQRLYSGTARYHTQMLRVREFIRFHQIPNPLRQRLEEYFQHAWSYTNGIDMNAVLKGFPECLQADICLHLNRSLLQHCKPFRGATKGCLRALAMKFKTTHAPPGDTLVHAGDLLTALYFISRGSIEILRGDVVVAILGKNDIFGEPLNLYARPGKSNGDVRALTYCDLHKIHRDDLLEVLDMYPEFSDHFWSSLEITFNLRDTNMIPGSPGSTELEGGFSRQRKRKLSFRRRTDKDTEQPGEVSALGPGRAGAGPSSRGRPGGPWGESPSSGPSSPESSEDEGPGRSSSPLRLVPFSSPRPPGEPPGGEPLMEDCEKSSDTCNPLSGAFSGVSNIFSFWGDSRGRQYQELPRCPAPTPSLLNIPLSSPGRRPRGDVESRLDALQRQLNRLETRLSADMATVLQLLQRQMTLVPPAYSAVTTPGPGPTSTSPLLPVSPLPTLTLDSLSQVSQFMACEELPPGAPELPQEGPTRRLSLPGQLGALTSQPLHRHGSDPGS
On to `O=C(CCCCC(=O)NCCc1ccccc1)NCCc1ccccc1`, for which the “hERG current change (%, negative = inhibition) at 10uM” value came out at 15.6%.

As for `CN(C)C(=O)c1ccc(NC(=O)c2ccc(-c3ccc(Cl)cc3)o2)cc1`, the “hERG current change (%, negative = inhibition) at 10uM” value was -28.2%.

As to `COc1cc(/C=C2\CCCc3c2nc2ccccc2c3C(=O)O)cc(Cl)c1O`, the “hERG current change (%, negative = inhibition) at 10uM” value stood at 4.11%.

For `CCCCCOc1ccc(C(=O)C(c2ccccc2)N2CCOCC2)cc1.Cl` (centres unmarked), the “hERG current change (%, negative = inhibition) at 10uM” value is listed as 3.16%.

As for `CCc1c(C)sc(NC(=O)C2CCCCC2C(=O)O)c1C(N)=O` (centres unmarked), the “hERG current change (%, negative = inhibition) at 10uM” value is given as 14.3%.

Regarding `Cc1ccc(Cn2c(C3CCCN3c3nc(C)cs3)nc3cc(C(=O)NCCCO)ccc32)cc1` (centres unmarked), the “hERG current change (%, negative = inhibition) at 10uM” value is -17.5%.

`CCCCOc1cccc(C2/C(=C(\O)c3ccc4c(c3)OCCO4)C(=O)C(=O)N2CCN2CCOCC2)c1` (centres unmarked): the “hERG current change (%, negative = inhibition) at 10uM” value is 19.5%.

On to `CCOC(=O)c1[nH]c2cc3c(cc2c1NC(=O)CN1CCCCC1C)OCO3` (centres unmarked), for which the “hERG current change (%, negative = inhibition) at 10uM” value is given as -42.7%.

Regarding `COc1ccc(N2CCN(C(CNC(=O)C(=O)NCC(OC)OC)c3ccco3)CC2)cc1` (centres unmarked), the “hERG current change (%, negative = inhibition) at 10uM” value amounted to 15.6%.

As to `O=[N+]([O-])c1cccc(S(=O)(=O)Nc2ccc(-c3ccc(N4CCOCC4)nn3)cc2)c1`, the “hERG current change (%, negative = inhibition) at 10uM” value is reported as -25.6%.

Regarding `CCCNC(=O)C(=O)N/N=C/c1cccs1`, the “hERG current change (%, negative = inhibition) at 10uM” value was 18.1%.

Turning to `COc1ccccc1OCc1nnc(SCC(=O)N2CCCCC2)n1-c1ccccc1`, the “hERG current change (%, negative = inhibition) at 10uM” value was -23.7%.

Turning to `Cc1noc(C)c1-c1nnc(-c2ccc(C(F)(F)F)cc2)o1`, the “hERG current change (%, negative = inhibition) at 10uM” value was 4.76%.

Turning to `COc1ccc(S(=O)(=O)Cc2ccc(C(=O)NCc3ccccc3)o2)cc1`, the “hERG current change (%, negative = inhibition) at 10uM” value is on record as -14.3%.

Take `COc1ccc(Cl)cc1-c1nc(SCC(=O)NC(C)C)n[nH]1`: the “hERG current change (%, negative = inhibition) at 10uM” value was -9.03%.

As for `C=C(C)CSc1nnc(-c2ccc(OC)c(OC)c2)n1N`, the “hERG current change (%, negative = inhibition) at 10uM” value was -7.69%.

Consider `CN(CCOc1ccc(Cl)cc1)C(=O)C1CCN(C(=O)c2ccc(F)cc2)CC1`, for which the “hERG current change (%, negative = inhibition) at 10uM” value was -69.9%.

Take `O=C(CCC(=O)OCc1ccc(Cl)cc1)Nc1cccc([N+](=O)[O-])c1`: the “hERG current change (%, negative = inhibition) at 10uM” value is recorded as -25.1%.

Consider `O=C(c1c(O)c2ccccc2oc1=O)C1CCCCC1`, for which the “hERG current change (%, negative = inhibition) at 10uM” value is on record as 14.3%.

Take `O=C(COc1ccc2c(c1)OCO2)Nc1cccc(F)c1`: the “hERG current change (%, negative = inhibition) at 10uM” value was determined as 19.8%.

On to `Cc1cc(C(=O)OCC(=O)N2CC(C)OC(C)C2)c2ccccc2n1` (centres unmarked), for which the “hERG current change (%, negative = inhibition) at 10uM” value is listed as -15.7%.

On to `Br.C=CCN1C(c2ccccc2)=CS/C1=C(/C#N)c1nnc(N2CCOCC2)n1-c1ccccc1`, for which the “hERG current change (%, negative = inhibition) at 10uM” value is recorded as -12.4%.

Take `CCCCCCOc1ccc(C(=O)O)cc1C#N`: the “hERG current change (%, negative = inhibition) at 10uM” value stood at 13.5%.

`COc1ccccc1CN(C)C(=O)c1cnc(C)cn1`: the “hERG current change (%, negative = inhibition) at 10uM” value stood at 19%.

With `CC(=O)N1CCN(Cc2nc3cc(NC(=O)Nc4ccccc4)ccc3n2C)CC1`, the “hERG current change (%, negative = inhibition) at 10uM” value is 20.6%.

On to `O=C(/C=C1\NC2(CCCC2)Cc2ccccc21)C(=O)N/N=C/c1ccccc1O`, for which the “hERG current change (%, negative = inhibition) at 10uM” value worked out at 19.1%.

As for `CCC(C)[C@H](NC(=O)OC(C)(C)C)C(=O)N/N=C/c1ccc2cc(OC)ccc2n1` (some centres unmarked), the “hERG current change (%, negative = inhibition) at 10uM” value is reported as -13.7%.

Take `Cn1cnnc1SCC(=O)NNC(=O)COc1ccc(Br)cc1`: the “hERG current change (%, negative = inhibition) at 10uM” value is listed as -10.6%.

For `Cc1cc(C(=O)CSc2cccc[n+]2[O-])c(C)n1-c1ccc(Br)cc1`, the “hERG current change (%, negative = inhibition) at 10uM” value was -68.6%.

As for `CC1(C(=O)NC2CCCC2)CCC(=O)N1Cc1cccs1` (centres unmarked), the “hERG current change (%, negative = inhibition) at 10uM” value was 1.82%.

In the case of `CC(C)CC(=O)NC(=S)Nc1ccc(S(=O)(=O)N2CCCC2)cc1`, the “hERG current change (%, negative = inhibition) at 10uM” value amounted to 35.2%.

Take `O=C(CSc1nc(=O)n2ccccc2n1)NCc1ccccc1Cl`: the “hERG current change (%, negative = inhibition) at 10uM” value was -4.75%.

With `CC(C)c1nnc(NC(=O)C2CCN(C(=O)c3ccco3)CC2)s1`, the “hERG current change (%, negative = inhibition) at 10uM” value is 0.275%.

Turning to `C=CCn1c(CNC(=O)c2ccco2)nnc1SCC(=O)c1ccccc1`, the “hERG current change (%, negative = inhibition) at 10uM” value worked out at 2.5%.

On to `CCOC(=O)COc1ccc(C(=O)CC)cc1OC`, for which the “hERG current change (%, negative = inhibition) at 10uM” value came to 22.5%.

Turning to `CCCCn1c(-c2ccc(OC(F)F)cc2)nc2c1c(=O)[nH]c(=O)n2CC(C)C`, the “hERG current change (%, negative = inhibition) at 10uM” value is listed as -15.9%.

Turning to `Cc1ccc(NC(=O)Nc2ccc3c(c2)CCC3)cc1`, the “hERG current change (%, negative = inhibition) at 10uM” value is listed as -37.5%.

Regarding `O=C(NCCc1c[nH]c2ccccc12)c1ccc(F)cc1F`, the “hERG current change (%, negative = inhibition) at 10uM” value was found to be 5.94%.

Regarding `COc1ccc(C(=O)N2CCCC(c3nc(-c4cc(OC)c(OC)c(OC)c4)no3)C2)cc1` (centres unmarked), the “hERG current change (%, negative = inhibition) at 10uM” value is on record as -29.8%.

`CCC(=O)Nc1ccc(Cl)c(NC(=O)c2cccc(OC)c2)c1`: the “hERG current change (%, negative = inhibition) at 10uM” value amounted to 14.2%.

Turning to `CCn1c2ccccc2c2cc(NC(=O)COC(=O)c3cc(S(=O)(=O)N4CCCCC4)ccc3Cl)ccc21`, the “hERG current change (%, negative = inhibition) at 10uM” value is 4.8%.

In the case of `O=C(Nc1ccccc1)Nc1ccncc1`, the “hERG current change (%, negative = inhibition) at 10uM” value is listed as 6.4%.

Take `CCc1ccc(NC(=S)NC2CC3CCC(C2)N3Cc2ccco2)cc1` (centres unmarked): the “hERG current change (%, negative = inhibition) at 10uM” value is -45.5%.

As for `O=S(=O)(c1ccccc1)N1CCC(Oc2ccc(-n3cnnn3)cc2)CC1`, the “hERG current change (%, negative = inhibition) at 10uM” value is recorded as -74.8%.
